Experimental data from the antibiotic and cytotoxicity screens of Wong et al. (2023).
The other results are listed elsewhere or left out.

Legend:
[1] = system: HSkMC (human skeletal muscle cells); experiment: cytotoxicity call (relative viability < 0.9); details: 10 µM
[2] = system: HepG2; experiment: cytotoxicity call (relative viability < 0.9); details: 10 µM
[3] = system: S. aureus RN4220; experiment: growth inhibition call (relative growth <= 0.2); details: 50 µM

Cc1noc(C)c1NC(=O)Nc1cccc2c1O[C@H](CN(C)Cc1ccc(Cl)c(Cl)c1)[C@H](C)CN([C@H](C)CO)C2=O
inactive: cytotoxicity call [1] | cytotoxicity call [2] | growth inhibition call [3]

COCC(=O)N(C)C[C@H]1Oc2cc(C#Cc3ccccc3)ccc2S(=O)(=O)N([C@H](C)CO)C[C@@H]1C
inactive: cytotoxicity call [1] | cytotoxicity call [2] | growth inhibition call [3]

C[C@@H]1CN([C@@H](C)CO)C(=O)c2cc(NC(=O)CCN3CCOCC3)ccc2O[C@H]1CN(C)Cc1ccccc1
inactive: cytotoxicity call [1] | cytotoxicity call [2] | growth inhibition call [3]

CCS(=O)(=O)N1C[C@@H](C)[C@H](OC)CN(C)C(=O)c2cc(NS(=O)(=O)c3ccccc3C)ccc2OC[C@H]1C
inactive: cytotoxicity call [1] | cytotoxicity call [2] | growth inhibition call [3]

O=C(C[C@H]1CC[C@@H]2[C@H](COC[C@H](O)CN2S(=O)(=O)c2ccccc2F)O1)NCc1ccccc1Cl
inactive: cytotoxicity call [1] | cytotoxicity call [2] | growth inhibition call [3]

Cc1nc2c(C)cc(N)cn2n1
inactive: cytotoxicity call [1] | cytotoxicity call [2] | growth inhibition call [3]

C[C@@H]1CN([C@H](C)CO)C(=O)c2cccc(NC(=O)NC3CCCCC3)c2O[C@H]1CN(C)C(=O)Nc1cccc2ccccc12
inactive: cytotoxicity call [1] | cytotoxicity call [2] | growth inhibition call [3]

C[C@H]1CN([C@@H](C)CO)S(=O)(=O)c2ccc(-c3cccnc3)cc2O[C@H]1CN(C)C(=O)c1cccc(F)c1
inactive: cytotoxicity call [1] | cytotoxicity call [2] | growth inhibition call [3]

C[C@@H]1CN([C@H](C)CO)C(=O)c2cccc(NC(=O)c3cnccn3)c2O[C@@H]1CN(C)Cc1ccc(C(=O)O)cc1
inactive: cytotoxicity call [1] | cytotoxicity call [2] | growth inhibition call [3]

C[C@@H]1CN([C@H](C)CO)C(=O)c2cc(NS(=O)(=O)c3ccccc3)ccc2O[C@@H]1CN(C)Cc1ccncc1
inactive: cytotoxicity call [1] | cytotoxicity call [2] | growth inhibition call [3]

Cc1noc(C)c1S(=O)(=O)Nc1ccc2c(c1)C(=O)N([C@H](C)CO)C[C@@H](C)[C@@H](CN(C)S(=O)(=O)c1ccccc1)O2
inactive: cytotoxicity call [1] | cytotoxicity call [2] | growth inhibition call [3]

C[C@@H]1CN([C@H](C)CO)C(=O)c2cc(N(C)C)ccc2O[C@@H](C)CCCCO[C@@H]1CN(C)S(=O)(=O)c1cn(C)cn1
inactive: cytotoxicity call [1] | cytotoxicity call [2] | growth inhibition call [3]

C[C@@H]1CCCCO[C@@H](CN(C)C(=O)Nc2ccc(C(F)(F)F)cc2)[C@H](C)CN([C@@H](C)CO)C(=O)c2cc(NC(=O)NC3CCCCC3)ccc2O1
inactive: cytotoxicity call [1] | cytotoxicity call [2] | growth inhibition call [3]

C[C@H](CO)N1C[C@H](C)[C@@H](CN(C)Cc2ccc3c(c2)OCO3)OCCCC[C@H](C)Oc2ccc(NC(=O)C3CCCCC3)cc2C1=O
inactive: cytotoxicity call [1] | cytotoxicity call [2] | growth inhibition call [3]

Cn1nc(CNc2ncccn2)c2c1CNCC2
inactive: cytotoxicity call [1] | cytotoxicity call [2] | growth inhibition call [3]

COCCN(Cc1ccc(OC)cc1)c1c(C)nc2ccc(C(=O)Nc3ccc(Cl)c(Cl)c3)cn12
inactive: cytotoxicity call [1] | cytotoxicity call [2] | growth inhibition call [3]

Cc1ccc(S(=O)(=O)N(C)C[C@@H]2Oc3ccc(NS(=O)(=O)c4ccc(F)cc4)cc3C(=O)N([C@@H](C)CO)C[C@@H]2C)cc1
inactive: cytotoxicity call [1] | cytotoxicity call [2] | growth inhibition call [3]

COCC(=O)Nc1ccc2c(c1)C(=O)N(C)[C@H]1CC[C@H](CC(=O)NCc3ccc(OC)cc3)O[C@H]1CO2
inactive: cytotoxicity call [1] | cytotoxicity call [2] | growth inhibition call [3]

C[C@@H]1CCCCO[C@@H](CN(C)S(=O)(=O)c2cccs2)[C@H](C)CN([C@@H](C)CO)C(=O)c2cc(NC(=O)Cc3ccccc3)ccc2O1
inactive: cytotoxicity call [1] | cytotoxicity call [2] | growth inhibition call [3]

CCCN(C)C[C@H]1OCCCC[C@@H](C)Oc2ccc(NC(=O)CCC(F)(F)F)cc2C(=O)N([C@H](C)CO)C[C@@H]1C
inactive: cytotoxicity call [1] | cytotoxicity call [2] | growth inhibition call [3]

C[C@H]1CN([C@@H](C)CO)S(=O)(=O)c2ccc(C#CC3CCCC3)cc2O[C@@H]1CN(C)Cc1cncnc1
inactive: cytotoxicity call [1] | cytotoxicity call [2] | growth inhibition call [3]

CNc1nc(OCC#N)nc(N2CCCCC2)n1
inactive: cytotoxicity call [1] | cytotoxicity call [2] | growth inhibition call [3]

CC(C)C#Cc1cnc2c(c1)C(=O)N([C@H](C)CO)C[C@H](C)[C@H](CN(C)S(=O)(=O)c1cn(C)cn1)O2
inactive: cytotoxicity call [1] | cytotoxicity call [2] | growth inhibition call [3]

C[C@H]1CN([C@@H](C)CO)C(=O)c2cc(NS(=O)(=O)c3cccs3)ccc2O[C@H]1CN(C)Cc1ccc(Cl)c(Cl)c1
inactive: cytotoxicity call [1] | cytotoxicity call [2] | growth inhibition call [3]

O=C(C[C@H]1C[C@@H]2c3cc(NC(=O)Nc4ccc(C(F)(F)F)cc4)ccc3O[C@@H]2[C@H](CO)O1)NCc1ccc(Cl)cc1
inactive: cytotoxicity call [1] | cytotoxicity call [2] | growth inhibition call [3]

COc1ccc(CN(C)C[C@H]2OCCCC[C@@H](C)Oc3ccc(NS(=O)(=O)c4c(C)noc4C)cc3C(=O)N([C@H](C)CO)C[C@H]2C)cc1
inactive: cytotoxicity call [1] | cytotoxicity call [2] | growth inhibition call [3]

COc1cc(N2CCO[C@]3(COCCN(S(C)(=O)=O)C3)C2)ncn1
inactive: cytotoxicity call [1] | cytotoxicity call [2] | growth inhibition call [3]

C[C@@H]1CCCCO[C@@H](CN(C)Cc2ccc(C(F)(F)F)cc2)[C@@H](C)CN([C@H](C)CO)C(=O)c2cc(NC(=O)CCCCCC(=O)Nc3ccccc3N)ccc2O1
inactive: cytotoxicity call [1] | cytotoxicity call [2] | growth inhibition call [3]
